# In PubChem BioAssay AID1345083 (National Center for Advancing Translational Sciences (NCATS), 2018):
# Out of some 94,000 compounds screened, about 6,200 (6.6%) were called active. Inconclusive results, whose numbers are uncertain, are shown with a selection of clear calls. Calls follow the shape of the dose curve; as a rule, active = well fitted inhibition curve with a large enough effect; inconclusive = small, poorly fitted or top-dose-only effect; inactive = flat fitted curve, though single readings scatter. Where the call is inconclusive, the potency comes from a doubtful curve fit.
# Test: Cytotoxic Profiling in HEK 293 Cell Line of Diverse Libraries Using Quantitative High-Throughput Screening; also: nearly all actives have a fitted effect of over 60% in size
# Details: HEK 293 viability, ATP luminescence (CellTiter-Glo), 48-72 h; series mostly up to 115 µM
# In short: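 Cells seeded first (HEK 293, 250 cells/well), then compound added by pintool. Incubation ran 48 or 72 hr at 37 degree Celsius. CellTiter-Glo was added and luminescence imaged after 10 min at room temperature.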
# Potency is read from the fitted curve at half-maximal effect; tags tell the direction and shape of the fitted curve.
row,Structure (SMILES),Potency
1,CCc1ccc(CNC(=O)C2CCN(c3cc(C(F)(F)F)nc(C)n3)CC2)cc1,"inconclusive: 35.5 µM [inhibitor, full curve]"
2,COc1cccc(-c2cc3c(=O)n(CCNC(=O)c4ccc(C#N)cc4)ccn3n2)c1,"inconclusive: 25.1 µM [inhibitor, full curve]"
3,COc1ccc(Nc2ccnc(N3CCCC(C(=O)N4CCCCC4)C3)n2)cc1 (configuration not stated),"inconclusive: 50.1 µM [inhibitor, partial curve, poor fit]"
4,CN1c2cc(C(=O)Nc3cc(F)cc(F)c3)ccc2C(=O)N2CCCCC21 (configuration not stated),"inconclusive: 44.7 µM [inhibitor, partial curve]"
5,COCc1cccc(-c2ccc3ncn(-c4ccc(F)cc4F)c(=O)c3n2)c1,inactive
6,CCc1ccc(S(=O)(=O)N2CCC(n3cnnc3COC)CC2)cc1,inactive
7,CC(C)Cn1c(=O)c(C(=O)NCCc2ccccc2)nc2cccnc21,"inconclusive: 50.1 µM [inhibitor, partial curve, poor fit]"
8,COc1cccc(N2C(=O)NC(=NC3CCCC3)C23CCCN(CC2CCCCC2)C3)c1 (configuration not stated),"inconclusive: 20 µM [inhibitor, full curve, poor fit]"
9,CC(=O)Oc1c(-c2ccc(NC(=O)C(C)C)cc2)c(-c2ccc(F)cc2)nn1-c1ccc(F)cc1,"inconclusive: 89.1 µM [inhibitor, single point]"
10,Cc1ccsc1C(=O)N1CCCC(c2noc(COc3ccccc3)n2)C1 (configuration not stated),"inconclusive: 50.1 µM [inhibitor, partial curve, poor fit]"
11,Cc1cnc(CC2CCCN(C(=O)C3(c4ccccc4)CC3)C2)n1Cc1ccc(F)cc1 (configuration not stated),"inconclusive: 50.1 µM [inhibitor, partial curve, poor fit]"
12,Cc1nn(-c2ccc(C(F)(F)F)cc2)c(C)c1[C@@H]1C=C[C@@H](NC(=O)NC2CCCCC2)C1,"inconclusive: 39.8 µM [inhibitor, full curve]"
13,CN(C)CC1(O)CCCN(Cc2cc3ccccc3n2C)C1 (configuration not stated),"inconclusive: 50.1 µM [inhibitor, partial curve, poor fit]"
14,COCc1nncn1C1CCN(S(=O)(=O)c2ccc(C)cc2C)CC1,inactive
15,CC1(c2ccccc2)N(Cc2ccccc2)C(=O)OC12CCN(Cc1c[nH]c3ccccc13)CC2 (configuration not stated),active: 28.2 µM
16,O=C(C1CCCCC1)N1CCC(N2C(=O)C(O)C23CCCCC3)CC1 (configuration not stated),inactive
17,COc1cc(NC(=O)c2ccc3c(c2)N(C)C2CCCCCN2C3=O)cc(OC)c1 (configuration not stated),"inconclusive: 44.7 µM [inhibitor, partial curve, poor fit]"
